Laboratory results from paper PMC4336329 (PLoS ONE, 2015).
Out of some 310,000 compounds screened, about 2,200 (0.71%) showed an effect of 50% or more. Effects have a minus sign here. The list shows a part of the results.

target: human ether-à-go-go-related gene (hERG) potassium channel (human, UniProt Q12809); assay: primary screen, population patch clamp on CHO cells stably expressing hERG
Sequence (Q12809 whole entry, looked up): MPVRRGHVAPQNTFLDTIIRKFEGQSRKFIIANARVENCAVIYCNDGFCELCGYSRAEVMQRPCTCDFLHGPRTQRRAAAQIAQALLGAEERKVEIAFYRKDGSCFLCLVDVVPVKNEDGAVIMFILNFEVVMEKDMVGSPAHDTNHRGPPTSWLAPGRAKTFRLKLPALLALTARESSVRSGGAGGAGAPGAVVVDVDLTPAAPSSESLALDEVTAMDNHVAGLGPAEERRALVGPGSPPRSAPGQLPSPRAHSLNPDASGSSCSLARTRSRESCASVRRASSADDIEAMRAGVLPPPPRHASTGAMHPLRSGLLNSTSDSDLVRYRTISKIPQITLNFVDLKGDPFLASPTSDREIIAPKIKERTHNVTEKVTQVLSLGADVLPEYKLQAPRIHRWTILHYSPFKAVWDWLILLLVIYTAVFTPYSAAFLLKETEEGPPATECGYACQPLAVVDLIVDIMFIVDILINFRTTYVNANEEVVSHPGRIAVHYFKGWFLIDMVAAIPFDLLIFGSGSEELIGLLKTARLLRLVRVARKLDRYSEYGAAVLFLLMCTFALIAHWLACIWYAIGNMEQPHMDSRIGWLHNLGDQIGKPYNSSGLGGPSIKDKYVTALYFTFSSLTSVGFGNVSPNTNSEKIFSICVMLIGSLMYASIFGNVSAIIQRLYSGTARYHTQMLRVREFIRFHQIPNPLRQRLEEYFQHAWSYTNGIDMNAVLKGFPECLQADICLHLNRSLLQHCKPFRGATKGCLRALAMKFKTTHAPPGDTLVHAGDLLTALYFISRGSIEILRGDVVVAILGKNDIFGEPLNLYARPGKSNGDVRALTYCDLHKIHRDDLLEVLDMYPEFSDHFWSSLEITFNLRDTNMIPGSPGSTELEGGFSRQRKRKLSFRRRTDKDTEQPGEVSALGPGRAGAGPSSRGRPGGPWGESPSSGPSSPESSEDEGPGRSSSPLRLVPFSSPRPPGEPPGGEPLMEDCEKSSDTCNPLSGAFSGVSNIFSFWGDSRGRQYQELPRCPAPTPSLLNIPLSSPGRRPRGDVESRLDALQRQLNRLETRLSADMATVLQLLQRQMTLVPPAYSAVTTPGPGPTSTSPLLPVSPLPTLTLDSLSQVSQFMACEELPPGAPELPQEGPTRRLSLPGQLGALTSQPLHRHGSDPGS

Compound | hERG current change (%, negative = inhibition) at 1uM [%]
CCCN(CCC)C(=O)CCSCCC(=O)N(CCC)CCC | 10.6
CC(C)C(OC(=O)CN1C(=O)COc2ccccc21)C(=O)NC1CCCC1 (stereo not drawn) | 15.9
COc1ccc(Cl)cc1S(=O)(=O)NCCCn1ccnc1 | 15.8
c1ccc(CNc2nc(N3CCOCC3)nc(N3CCOCC3)n2)cc1 | 3.44
CN1CCc2c(sc3nc(SCC(=O)N4CCOCC4)n(-c4ccc(Cl)cc4)c(=O)c23)C1 | 13.5
O=C1CC(C(=O)Nc2cccc(F)c2)n2ncnc2N1 (stereo not drawn) | 4.28
Cc1cc(C)n2nc(C(=O)N3CCOCC3)nc2n1 | 15.3
Cc1cc(C)c(C)c(OCC(=O)O/N=C(\N)c2cccnc2)c1 | 10.1
Cc1cc(C(F)(F)F)nn1CC(=O)N1CCOCC1 | -3.74
CCCCCn1c(=O)c(C(=O)OCC)c(O)c2ccccc21 | -4.24
CCOc1cc(N2CCOCC2)c(OCC)cc1NC(=O)COc1cccc(CC)c1 | 16.6
CC(=O)Nc1ccccc1C(=O)C(=O)Nc1cccc(C(=O)NC2CC2)c1 | 12.4
CC(C)CN1CCN=C1N(C)C | 16
COc1ccccc1/C=C/C(=O)NNC(=O)c1cc(C)oc1C | 3.97
O=C1NC(=O)C(Cc2cccs2)C(=O)N1 | 8.03
CCOC(=O)c1c(C)oc(NC(=O)CCl)c1C(=O)OCC | 10
CCN(CC(=O)Nc1ccc(OC)cc1)C(=O)CCc1nc2ccccc2c(=O)[nH]1 | 5.72
O=C(Nc1ccccc1-c1ccccc1)NC1CCN(C(=O)N2CCOCC2)CC1 | 7.99
COc1ccc(C(=O)N2CCN(S(=O)(=O)c3ccc(C)cc3)CC2)cc1S(=O)(=O)N1CCOCC1 | 4.42
COc1ccccc1N1CCN(CCCNC(=O)C2CCCN(c3ncnc4c3nc3n4CCCCC3)C2)CC1 (stereo not drawn) | 10.3
O=C(N/C(=C/c1cccs1)C(=O)N1CCCC1)c1ccccc1 | 14.4
CCCCc1nc(NCC2CCCO2)c(C#N)c2c1COC(C)(C)C2 (stereo not drawn) | 6.42
CCN(CC)CCN1C(=O)C2C(C(=O)Nc3ccc(Br)cc3)C3C=CC2(O3)C1C(=O)NC1CCCCC1 (stereo not drawn) | 5.12

Compound | hERG current change (%, negative = inhibition) at 1uM [%]
N#Cc1ncn(-c2ccc(Oc3ccccc3)cc2)c1N | 0.513
CN(Cc1cnccn1)Cc1nc(Cc2cccc(F)c2)no1 | 15.9
CCOc1ncccc1C(=O)OCC(=O)N1CCN(S(=O)(=O)c2ccc(Cl)cc2)CC1 | 12.1
O=S(=O)(Cc1ccccc1Cl)NCCc1ccc(F)cc1 | 7.36
Cc1ccc(NC(=O)CN2C(=O)C3CC=C(Cl)CC3C2=O)cc1 (stereo not drawn) | 8.18
CCOC(=O)c1c(NC(=S)Nc2cc([N+](=O)[O-])ccc2OC)sc2c1CCCCC2 | 2.89
CCOc1ccc(NC(=O)N2CCC(NC(=O)c3ccco3)CC2)cc1 | -0.77
C/C=C\C=C/C(=O)Nc1cccc(C2=NOC3(C2)C[C@H](C(N)=O)N(C(=O)c2ccc(OC)cc2)C3)c1 (stereo partly drawn) | 15.6
CN(C)c1cccc(C(=O)OCCCC(=O)c2ccc(F)cc2)c1 | -0.568
COc1ccc(C(=O)NCN2CCN(c3ccccc3)CC2)cc1OC | 7.76
Cl.Fc1ccc(COc2ccc(Br)cc2CNCc2ccncc2)cc1 | -7.69
O=C(NC1CC1)C1Nc2ccc(OC(F)(F)F)cc2C2C=CCC12 (stereo not drawn) | 3.62
O=C(NCc1cccnc1)C1CCCN(S(=O)(=O)c2cccc3nsnc23)C1 (stereo not drawn) | -5.19
CC(C)S(=O)(=O)c1csc(C(=O)Nc2ccc(F)cc2)c1N | 12
CCOCC(=O)Nc1cc(Cl)c(OC)cc1OC | 12.6
Cc1ccc(S(=O)(=O)N2CCN(C(=O)COC(=O)c3ccc([N+](=O)[O-])o3)CC2)c(C)c1 | -7.35
Cc1c(NC(=O)CCC2CCCCC2)c(=O)n(-c2ccccc2)n1C | 2.86
Cc1ccc(C2CCN(C(=S)NC3CCCCC3)C2)cc1 (stereo not drawn) | 8.58
O=C(c1ccccc1F)N1CCCC(c2ccccc2)C1 (stereo not drawn) | 0.0509
CCCCN=C1NN=C(c2cccc([N+](=O)[O-])c2)CS1.Cl | -0.44
CCOc1cc(/C=N/NC(=O)CN2CCCCC2)ccc1OCc1ccccc1 | -12.6
Cn1c(SCC(=O)NCc2ccccc2)nnc1-c1ccc(NC(=O)CCc2ccccc2)cc1 | 4.81
